Experimental data published in patent US20160008427A1 (Genentech, published 2016).
Values belong to the binder of their own block, whether it stands above or below them.

Assays:
C3b [1] = molecular target: T1, C3b (human, UniProt P01024 23-667; P01024 in part); assay: SPR (Biacore A100), CRIg fusion captured by anti-muFc, C3b injected, steady state analysis
T1 construct: also called soluble C3b; human C3b
Method: (§1) Affinities of C3b for mutant and wild-type CRIg were determined by using surface plasmon resonance measurements on a Biacore® A100 instrument (GE healthcare). An anti-Fc capture format was employed and the KD was calculated from equilibrium binding measurements. The sensor chip was prepared using the anti-muFc capture kit (BR-1008-38) following instructions supplied by the manufacturer. Mutant or wild-type CRIg was diluted in running buffer (10 mM HEPES pH 7.4, 150 mM NaCl, 0.01% Tween-20) to 1 μg/mL and injections of 60 μL were made such that ˜100 RU of fusion protein were captured on one spot of the chip surface. Sensorgrams were recorded for 10 min injections of solutions of varied C3b concentration over the CRIg spot with subtraction of signal for a reference spot containing the capture antibody but no CRIg. Data were obtained for a 2-fold dilution series of C3b ranging in concentration from 4 μM to 15.6 nM with the flow rate at 10 μL/min and at a temperature of 25° C. The surface was regenerated between binding cycles by a 30 second injection of 10 mM Gly-HCl pH 1.7. Plateau values obtained at the end of each C3b injection were used to calculate KD using the Affinity algorithm of the Biacore A100 Evaluation Software v1.1 (Safsten et al. (2006) Anal. Biochem. 353:181).

C3b [2] = molecular target: T1, C3b; assay: cell-based or functional assay
T1 sequence (P01024 23-667 limits assumed, chain 1 of 2): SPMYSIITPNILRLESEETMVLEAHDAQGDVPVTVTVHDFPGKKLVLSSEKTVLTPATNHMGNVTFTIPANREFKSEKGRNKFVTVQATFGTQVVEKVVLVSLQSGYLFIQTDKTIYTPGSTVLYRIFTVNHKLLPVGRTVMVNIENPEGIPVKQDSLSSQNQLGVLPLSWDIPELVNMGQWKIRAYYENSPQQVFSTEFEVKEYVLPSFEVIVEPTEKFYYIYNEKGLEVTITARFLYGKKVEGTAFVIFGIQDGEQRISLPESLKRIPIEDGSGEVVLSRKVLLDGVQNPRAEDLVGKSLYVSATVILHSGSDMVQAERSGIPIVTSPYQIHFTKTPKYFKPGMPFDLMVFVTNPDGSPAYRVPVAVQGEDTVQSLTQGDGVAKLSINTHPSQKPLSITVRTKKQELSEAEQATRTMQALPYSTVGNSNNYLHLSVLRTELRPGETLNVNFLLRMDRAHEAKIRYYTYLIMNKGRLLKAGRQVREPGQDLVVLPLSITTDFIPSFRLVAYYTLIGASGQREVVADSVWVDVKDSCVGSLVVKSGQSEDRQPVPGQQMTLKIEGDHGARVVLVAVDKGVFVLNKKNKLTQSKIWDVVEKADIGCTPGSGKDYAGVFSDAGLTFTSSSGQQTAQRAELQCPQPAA
T1 sequence (P01024 749-1663 limits assumed, chain 2 of 2): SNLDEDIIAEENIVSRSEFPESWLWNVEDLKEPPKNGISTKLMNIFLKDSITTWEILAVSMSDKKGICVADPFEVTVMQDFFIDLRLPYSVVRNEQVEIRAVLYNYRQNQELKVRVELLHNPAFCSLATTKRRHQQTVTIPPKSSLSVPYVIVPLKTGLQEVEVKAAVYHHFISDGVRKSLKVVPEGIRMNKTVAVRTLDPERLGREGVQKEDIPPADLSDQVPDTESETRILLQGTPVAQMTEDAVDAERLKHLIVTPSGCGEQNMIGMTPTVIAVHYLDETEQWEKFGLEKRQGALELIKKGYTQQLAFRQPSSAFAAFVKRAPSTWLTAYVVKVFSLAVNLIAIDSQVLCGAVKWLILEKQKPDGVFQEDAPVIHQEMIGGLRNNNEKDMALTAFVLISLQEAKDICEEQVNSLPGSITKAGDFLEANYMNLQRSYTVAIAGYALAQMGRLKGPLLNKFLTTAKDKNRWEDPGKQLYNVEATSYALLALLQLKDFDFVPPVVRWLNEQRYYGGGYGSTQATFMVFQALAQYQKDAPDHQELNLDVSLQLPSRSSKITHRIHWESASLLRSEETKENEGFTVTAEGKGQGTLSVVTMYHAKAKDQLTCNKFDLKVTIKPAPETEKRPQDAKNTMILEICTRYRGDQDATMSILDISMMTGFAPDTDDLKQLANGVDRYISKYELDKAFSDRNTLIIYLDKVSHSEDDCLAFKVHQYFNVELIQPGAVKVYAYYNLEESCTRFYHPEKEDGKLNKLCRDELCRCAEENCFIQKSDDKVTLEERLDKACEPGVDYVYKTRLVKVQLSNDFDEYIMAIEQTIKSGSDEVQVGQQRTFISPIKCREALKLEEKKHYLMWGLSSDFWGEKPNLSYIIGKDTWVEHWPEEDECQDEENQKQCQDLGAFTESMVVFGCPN

C3b [3] = molecular target: T1, C3b; assay: SPR (Biacore)
Method: as §1

- Kd (C3b [1]): 1100 nM
B1: wild-type CRIg, mouse IgG1 Fc fusion protein (Fc fusion)
chain: [about 120 residues not shown]HSSKLLKTKTEAPTTMTYPLKATSTVKQSWDWTTDMDGYLGETSAGPGKSLP
notes: also called CRIg wt; hCRIg-mIgG1; not shown: mouse IgG1 Fc (mIgG1; captured by anti-muFc)

- IC50 in a LPS-based assay selective for the alternative pathway of complement (C3b [2]): 180 fold
B2: CRIg Q64R M86Y (purified variant protein used in the competitive ELISA, AlphaScreen and complement assays) (receptor, not shown: a dimerising Fc or GST)
chain: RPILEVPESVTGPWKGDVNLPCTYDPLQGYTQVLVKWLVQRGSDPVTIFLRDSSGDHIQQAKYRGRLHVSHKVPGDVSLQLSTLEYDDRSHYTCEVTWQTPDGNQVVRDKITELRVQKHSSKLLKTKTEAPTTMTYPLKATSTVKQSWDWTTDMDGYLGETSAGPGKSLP
notes: also called RL41; CRIg-ECD protein with combined amino acid substitutions Q64R and M86Y
- IC50 in an erythrocyte-based hemolytic assay selective for the alternative pathway of complement (C3b [2]): 4 fold

- fold improvement of affinity over wildtype CRIg (C3b [3]): 5 fold
- Kd (C3b [1]): 200 nM
B3: CRIg Q64R M86Y, mouse IgG1 Fc fusion protein (Fc fusion)
chain: [about 120 residues with changes not shown]HSSKLLKTKTEAPTTMTYPLKATSTVKQSWDWTTDMDGYLGETSAGPGKSLP
notes: also called Q64R/M86Y mutant; hCRIg-RL41-mIgG1; not shown: mouse IgG1 Fc (mIgG1; captured by anti-muFc)
